This is one part of the list. The full chains were built here from the parent and the listed change. Inactive controls read about 0.05.
B1: TEV protease; numbered along this chain (parent)
chain: MGESLFKGPRDYNPISSSICHLTNESDGHTTSLYGIGFGPFIITNKHLFRRNNGTLVVQSLHGVFKVKDTTTLQQHLVDGRDMIIIRMPKDFPPFPQKLKFREPQREERICLVTTNFQTKSMSSMVSDTSCTFPSGDGIFWKHWIQTKDGQCGSPLVSTRDGFIVGIHSASNFTNTNNYFTSVPKNFMELLTNQEAQQWVSGWRLNADSVLWGGHKVFMVKPEEPFQPVKEATQL

Variants of: B1
Assay: raw area under fraction-flipped curve 0-4 h after induction (AUC4h, not background-subtracted), DNA-recorder readout of cleavage of the substrate (dimensionless); higher = more cleavage of the substrate by the protease variant
Details: temperature: 34 °C; time window: 0-4 h after rhamnose induction
Method: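 In vivo DNA recorder in E. coli TOP10(DE3) ΔrhaA at 34 °C. Each TEVp single-site mutant (parent TEVp 0) is paired with a single-site variant of the 7-mer TEVs (canonical ENLYFQ|S). The substrate sits between flexible linkers in a Bxb1-sfGFP-TEVs-SsrA fusion, so cleavage stabilises Bxb1 and speeds flipping of a recombination array, read by NGS. The value is the raw area under the fraction-flipped curve over 0-4 h after rhamnose induction (AUC4h), with ≥20 reads per time point. It is not background-subtracted; inactive controls average about 0.047.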
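Also: Bxb1 expression induced with 0.2% (w/v) L-rhamnose at OD600 near 0.5, cultures sampled hourly, flipped fraction per protease–substrate barcode pair counted by paired-end Illumina sequencing.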

| Variant | area with substrate ENLYFCS | area with substrate ENLYFDS | area with substrate ENLYFES | area with substrate ENLYFFS | area with substrate ENLYFHS | area with substrate ENLYFIS | area with substrate ENLYFKS | area with substrate ENLYFMS | area with substrate ENLYFNS | area with substrate ENLYFPS | area with substrate ENLYFRS | area with substrate ENLYFSS | area with substrate ENLYFTS | area with substrate ENLYFVS | area with substrate ENLYFWS | area with substrate ENLYFYS | area with substrate ENLYFGS | area with substrate ENLYFLS |
| --- | --- | --- | --- | --- | --- | --- | --- | --- | --- | --- | --- | --- | --- | --- | --- | --- | --- | --- |
| MGESLFKGPRDYNPISSSICHLTNESDGHTTSLYGIGFGPFIITNKHLFRRNNGTLVVQSLHGVFKVKDTTTLQQHLVDGRDMIIIRMPKDFPPFPQKLKFREPQREERICLVTTNFQTKSMSSMVSDTSCTFPSGDGIFWKHWIQTKDGQCGSPLVSTRDGFIVGIHSASNFTNTNNYFTSVPKLFMELLTNQEAQQWVSGWRLNADSVLWGGHKVFMVKPEEPFQPVKEATQL [N186L] | 0.0598 | 0.0461 | 0.0482 | 0.0472 | 0.0762 | 0.0599 | 0.0627 | 0.0675 | 0.0583 | 0.0586 | 0.061 | 0.063 | 0.0588 | 0.11 | 0.0623 | 0.0585 | – | – |
| MGESLFKGPRDYNPISSSICHLTNESDGHTTSLYGIGFGPFIITNKHLFRRNNGTLVVQSLHGVFKVKDTTTLQQHLVDGRDMIIIRMPKDFPPFPQKLKFREPQREERICLVTTNFQTKSMSSMVSDTSCTFPSGDGIFWKHWIQTKDGQCGSPLVSTRDGFIVGIHSASNFTNTNNYFTSVPKMFMELLTNQEAQQWVSGWRLNADSVLWGGHKVFMVKPEEPFQPVKEATQL [N186M] | 0.0584 | 0.0752 | 0.0682 | 0.0764 | – | 0.0536 | 0.0763 | 0.0735 | 0.0608 | 0.0492 | – | 0.0483 | 0.0528 | 0.0843 | 0.0695 | – | – | – |
| MGESLFKGPRDYNPISSSICHLTNESDGHTTSLYGIGFGPFIITNKHLFRRNNGTLVVQSLHGVFKVKDTTTLQQHLVDGRDMIIIRMPKDFPPFPQKLKFREPQREERICLVTTNFQTKSMSSMVSDTSCTFPSGDGIFWKHWIQTKDGQCGSPLVSTRDGFIVGIHSASNFTNTNNYFTSVPKNFMELLTNREAQQWVSGWRLNADSVLWGGHKVFMVKPEEPFQPVKEATQL [Q194R] | 0.0332 | – | 0.0622 | 0.0697 | 0.0591 | 0.0528 | 0.0643 | 0.0599 | 0.0873 | 0.0587 | – | – | 0.0583 | – | – | 0.0515 | 0.0651 | – |
| MGESLFKGPRDYNPISSSICHLTNESDGHTTSLYGIGFGPFIITNKHLFRRNNGTLVVQSLHGVFKVKDTTTLQQHLVDGRDMIIIRMPKDFPPFPQKLKFREPQREERICLVTTNFQTKSMSSMVSDTSCTFPSGDGIFWKHWIQTKDGQCGSPLVSTRDGFIVGIHSASNFTNTNNYFTSVPKNFMELLTNQEAQIWVSGWRLNADSVLWGGHKVFMVKPEEPFQPVKEATQL [Q198I] | 0.0757 | 0.0619 | 0.0731 | 0.0824 | – | 0.0585 | 0.0535 | 0.0654 | 0.053 | 0.058 | 0.0562 | – | 0.0631 | 0.0496 | 0.0598 | 0.0469 | – | 0.0742 |
| MGESLFKGPRDYNPISSSICHLTNESDGHTTSLYGIGFGPFIITNKHLFRRNNGTLVVQSLHGVFKVKDTTTLQQHLVDGRDMIIIRMPKDFPPFPQKLKFREPQREERICLVTTNFQTKSMSSMVSDTSCTFPSGDGIFWKHWIQTKDGQCGSPLVSTRDGFIVGIHSASNFTNTNNYFTSVPKNFMELLTNQEAQQWVKGWRLNADSVLWGGHKVFMVKPEEPFQPVKEATQL [S201K] | 0.0537 | – | 0.0298 | – | – | 0.0662 | – | – | – | 0.0654 | – | – | 0.101 | – | – | – | – | – |
| MGESLFKGPRDYNPISSSICHLTNESDGHTTSLYGIGFGPFIITNKHLFRRNNGTLVVQSLHGVFKVKDTTTLQQHLVDGRDMIIIRMPKDFPPFPQKLKFREPQREERICLVTTNFQTKSMSSMVSDTSCTFPSGDGIFWKHWIQTKDGQCGSPLVSTRDGFIVGIHSASNFTNTNNYFTSVPKNFMELLTNQEAQQWVSGYRLNADSVLWGGHKVFMVKPEEPFQPVKEATQL [W203Y] | 0.0579 | – | 0.0557 | – | 0.0604 | 0.0629 | – | – | 0.0579 | – | 0.0593 | – | – | 0.0589 | 0.0702 | 0.0554 | – | – |
| MGESLFKGPRDYNPISSSICHLTNESDGHTTSLYGIGFGPFIITNKHLFRRNNGTLVVQSLHGVFKVKDTTTLQQHLVDGRDMIIIRMPKDFPPFPQKLKFREPQREERICLVTTNFQTKSMSSMVSDTSCTFPSGDGIFWKHWIQTKDGQCGSPLVSTRDGFIVGIHSASNFTNTNNYFTSVPKNFMELLTNQEAQQWVSGWRWNADSVLWGGHKVFMVKPEEPFQPVKEATQL [L205W] | 0.0466 | 0.0564 | – | 0.0641 | – | – | – | 0.0575 | – | 0.0533 | 0.0557 | – | – | 0.0529 | 0.0603 | 0.0597 | – | – |
| MGESLFKGPRDYNPISSSICHLTNESDGHTTSLYGIGFGPFIITNKHLFRRNNGTLVVQSLHGVFKVKDTTTLQQHLVDGRDMIIIRMPKDFPPFPQKLKFREPQREERICLVTTNFQTKSMSSMVSDTSCTFPSGDGIFWKHWIQTKDGQCGSPLVSTRDGFIVGIHSASNFTNTNNYFTSVPKNFMELLTNQEAQQWVSGWRLNADSVLWGGHKAFMVKPEEPFQPVKEATQL [V217A] | 0.068 | 0.0362 | 0.056 | – | 0.0495 | 0.0603 | 0.0391 | 0.0574 | 0.0695 | 0.0546 | – | 0.0447 | – | – | – | 0.0576 | 0.0652 | 0.0591 |
| MGESLFKGPRDYNPISSSICHLTNESDGHTTSLYGIGFGPFIITNKHLFRRNNGTLVVQSLHGVFKVKDTTTLQQHLVDGRDMIIIRMPKDFPPFPQKLKFREPQREERICLVTTNFQTKSMSSMVSDTSCTFPSGDGIFWKHWIQTKDGQCGSPLVSTRDGFIVGIHSASNFTNTNNYFTSVPKNFMELLTNQEAQQWVSGWRLNADSVLWGGHKVFMPKPEEPFQPVKEATQL [V220P] | 0.0475 | 0.0446 | 0.0629 | 0.0602 | 0.0557 | 0.0563 | 0.064 | 0.0609 | 0.0726 | 0.0573 | 0.0534 | 0.0614 | 0.0646 | 0.0287 | 0.0895 | 0.0268 | 0.0467 | 0.0579 |
